# Measurements: publication PMC12040169 (PLOS Biology, 2025)
# The list shows a part of the results.
# Test system: T1, C. trachomatis L2/434/Bu expressing GFP (CTL2-GFP)
# T1 construct: L2/434/Bu GFP intracellular growth in HeLa cells
# Parameters: species or system HeLa; C. trachomatis total inclusion area by high-content imaging, normalised to DMSO
# Conditions: total inclusion area; 28.5 h, 10 µM; inhibitor
# Outline: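 High-content images of fixed, Hoechst-stained infected cultures supply inclusion area and count (growth) plus nuclei number (viability), complementing bulk GFP/resorufin fluorescence. MIC determination is unchanged from the primary assay.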
row,Structure (SMILES),% of control remaining
1,CCOCCNS(=O)(=O)c1ccc(C(C)(C)CC)cc1 [CBK044655],92.2342
2,Cc1ccc(C2(C(=O)N3CCC(O)(c4ccccn4)CC3)CC2)cc1 [CBK283754],112.614
3,N#Cc1cccc(C(=O)N2CCCC3(CCN(Cc4ccccc4)C3)C2)c1 (stereo not drawn) [CBK136893],103.026
4,O=C1NC2(CCCN(C(=O)c3ccco3)C2)Nc2ccccc21 (stereo not drawn) [CBK284803],78.3094
5,Cc1cc(NC(=O)Cc2ccc(Cl)c(Cl)c2)c2ccccc2n1 [CBK116266],81.5051
6,CCCOC(=O)Cn1cnc2sc(C)c(C)c2c1=O [CBK304371],102.818
7,CCN(Cc1ccccc1)C(=O)NCCc1c[nH]cn1 [CBK155220],101.746
8,CS(=O)(=O)N1CC2(CCN(CCO)CC2)c2ccccc21 [CBK126677],103.367
9,O=C1N2CCSC2=NC1(Nc1nccs1)C(F)(F)F (stereo not drawn) [CBK267484],106.301
10,CSc1nnc(-c2ccc(Br)cc2)o1 [CBK026502],62.8632
11,CCc1c(C)cc(C(=O)N(C)C(CC)c2ccccn2)c(=O)n1C (stereo not drawn) [CBK307078],57.8072
12,CC(C)[C@H](CO)n1c(=O)[nH]c2ncc(-c3cccc4ncccc34)nc21 [CBK064955],117.334
13,NC(=O)C1CCN(C(=O)c2cc(O)nc3ccccc23)CC1 [CBK296719],83.2246
14,Cc1ccc(NS(=O)(=O)c2cc(C(=O)Nc3ccc(S(=O)(=O)N4CCCC4)cc3)ccc2C)cc1 [CBK268784],66.6954
15,O=C(O)c1cccc2c1C(=O)C(CC1CCCO1)N2 (stereo not drawn) [CBK287140],106.446
16,c1cnc(-c2ccsc2)c(OC2CCCCC2)n1 [CBK106764],107.636
17,O=[N+]([O-])c1cccc(C(Nc2ccccn2)n2cnc3ccccc32)c1 (stereo not drawn) [CBK261145],76.5759
18,Cc1noc(C)c1S(=O)(=O)Nc1csc(C(F)(F)F)c1-c1ccccc1 [CBK001237],96.1525
19,Cc1cc(OC(C)C(=O)Nc2ccccc2C(=O)N2CCCC2)ccc1Cl (stereo not drawn) [CBK269710],98.7166
20,CCCn1c(SCC(=O)N2CCc3ccccc32)nc(O)cc1=O [CBK305843],83.6648
21,O=c1cc2oc3cc(O)c(O)cc3c(-c3cccc(OCc4ccc([N+](=O)[O-])cc4)c3)c-2cc1O [CBK265388],92.7158

row,Structure (SMILES),% of control remaining
1,COc1ccc(-c2cc(C3CCCCCN3)no2)cc1 (stereo not drawn) [CBK285399],89.638
2,NC(=O)c1cccnc1N1CCN(CCCN(c2ccc(F)cc2)c2ccc(F)cc2)CC1 [CBK025341C],82.1179
3,CC1CN(Cc2nc3c(c(=O)n(C)c(=O)n3C)n2CCN2CCOCC2)CC(C)O1 (stereo not drawn) [CBK269340],97.0675
4,C#C[C@H]1C[N@@]2CC[C@H]1C[C@@H]2CNC(=O)Nc1cccc(C#N)c1 [CBK288754],91.0653
5,COC(=O)CN1C(=O)CC2(C1=O)C(=O)N(Cc1ccccc1)c1ccc(F)cc12 (stereo not drawn) [CBK075143],69.1699
6,Nc1ccc(-c2ccc(OC(F)(F)F)cc2)c2ccccc12 [CBK084327],26.3031
7,Cc1c(C(=O)O)c2cc(O)ccc2n1-c1ccccc1 [CBK115329],74.2178
8,CCN(CC)CC(c1ccccc1)C(O)c1ccc(OC)cc1 (stereo not drawn) [CBK262074C],94.0299
9,N/C(=N\OCC(=O)Nc1cccc([N+](=O)[O-])c1)c1nonc1N [CBK262044],103.818
10,COc1ccc(NC(=O)CN2CCN(c3ccccc3OC)CC2)c([N+](=O)[O-])c1 [CBK269188],79.7041
11,Cc1ccc(OCc2occc2C(=O)N2CCC(O)(CN(C)C)C2)cc1 (stereo not drawn) [CBK307341],42.9412
12,O=C(O)CC(CP(c1ccccc1)c1ccccc1)C(=O)O (stereo not drawn) [CBK260931],89.576
13,COc1ccc(-c2cnc3[nH]c(=O)n([C@H](C)c4ccccc4)c3n2)c(OC)c1OC [CBK064236],82.2374
14,O=C(O)c1ccc(NC(=O)c2ncn(-c3ccccc3)n2)cc1 [CBK269445],101.692
15,Nc1cccc(-c2ccc(NCc3cc(F)c(F)c(F)c3)nc2)c1 [CBK036985],61.2844
16,O=C(COc1ccc(S(=O)(=O)N2CCCCC2)cc1Cl)NCc1ccccn1 [CBK269253],95.926
17,O=C(Nc1cccc(NC(=S)NC(=O)c2ccc(Cl)cc2Cl)c1)c1ccccc1F [CBK264828],102.415
18,CCOC(=O)Cc1csc(NS(=O)(=O)c2ccc(OC(F)(F)F)cc2)n1 [CBK000852],86.0865
19,FC(F)(F)c1cccc(-c2cn3ccnc3c(NCc3ccncc3)n2)c1 [CBK066632],73.6113
20,Cc1ccccc1C(=O)Nc1cccc(NC(=O)c2nc[nH]n2)c1 [CBK267108],132.58
21,CNC(=O)c1ccc(-c2cc(OC)c(OC)c(OC)c2)nc1NCC1CC1 [CBK106312],87.9781

row,Structure (SMILES),% of control remaining
1,CN1CCN(c2ccccc2NC(=S)NC(=O)c2ccc(N3CCCCC3)c([N+](=O)[O-])c2)CC1 [CBK268520C],59.469
2,Cc1ccc(-c2cc(C(=O)Nc3cccnc3)n[nH]2)c(O)c1C [CBK288158],88.6569
3,CC1CC(C)CN(C(=O)Cn2ncc3cccn3c2=O)C1 (stereo not drawn) [CBK283805],101.146
4,COCCc1nsc(N2CCC(N(C)c3cccnn3)CC2)n1 [CBK304701],63.7321
5,C(=C/c1ccccc1)/C=N/c1ccc2nc(-c3ccc(/N=C/C=C/c4ccccc4)cc3)[nH]c2c1 [CBK261656],99.8638
6,C=CCNS(=O)(=O)c1ccc(NC(=O)Nc2ccc(Cl)cc2)cc1 [CBK269315],72.0379
7,COc1ncccc1-c1csc(C2CN3CCCC3CO2)n1 (stereo not drawn) [CBK304110],61.0121
8,O=C(NN1C(=O)c2ccccc2C1=O)c1cc(C(=O)NN2C(=O)c3ccccc3C2=O)cc(N2C(=O)c3ccccc3C2=O)c1 [CBK262100],99.3562
9,O=C1Nc2ccccc2SC1(O)C(F)(F)F (stereo not drawn) [CBK025554],104.999
10,CCOc1ccc(C(CC(=O)O)C(=O)O)cc1 (stereo not drawn) [CBK261363],85.7088
11,CS(=O)(=O)N1CCN(c2nc(C(F)(F)F)nc3ccsc23)CC1 [CBK304594],72.1694
12,Brc1ccc(CSc2nnc[nH]2)cc1 [CBK026361],42.2344
13,COC(=O)Nc1nc(Cl)cc(Cl)n1 [CBK027433],35.2833
14,CCOc1cc(C)c(C(C)C)cc1S(=O)(=O)NCc1ccccn1 [CBK268080],97.3959
15,O=C1c2ccccc2C(=O)N1CCc1nc2c3c4c(sc3ncn2n1)CCCCC4 [CBK268327],123.544
16,OC1(c2cccnc2F)CCN(Cc2cccc(F)c2)CC1 [CBK284373],89.0817
17,CCN(C)C(=O)N1CCN(CCCC(c2ccc(F)cc2)c2ccc(F)cc2)CC1 [CBK024910C],72.6146
18,CC(C)(C)Nc1nc(OCC#N)nc(N2CCCCC2)n1 [CBK269483],67.153
19,Cn1nc(-c2ccc(F)cc2)n(-c2ccncc2)c1=O [CBK282294],103.512
20,CCCn1ncc(C(=O)NC(CC)c2cn3cccnc3n2)c1C (stereo not drawn) [CBK307640],88.0769
21,OC[C@@H](c1ccccc1)N1CC[C@H]2c3ccc(Br)cc3CC[C@H]21 [CBK017507C],56.2001

row,Structure (SMILES),% of control remaining
1,CCC(Sc1nc(N)cc(=O)[nH]1)C(=O)Nc1ccc2ccccc2c1 (stereo not drawn) [CBK265761],78.9333
2,Cc1nc(S(=O)(=O)Nc2nc(C(C)C)ns2)cn1C [CBK051323],37.1807
3,Cc1ccccc1-n1c(Cc2ccccc2)nc2c(cnn2-c2ccccc2)c1=O [CBK262310],71.7065
4,CN(CC(=O)NCc1ccco1)C1CCCCCC1 [CBK254305],80.9598
5,O=C(c1ccco1)N1CCC2(CC1)Nc1cccnc1-n1cccc12 [CBK284506],84.349
6,Cc1nc2ccccn2c1-c1csc(Nc2ccc(C(=O)O)cc2)n1 [CBK261634B],30.7505
7,CCCC(=O)NC(c1ccc(OC)cc1)c1cc(Cl)c2cccnc2c1O (stereo not drawn) [CBK293944],110.952
8,OCCCNC(=S)Nc1ccc(Br)cc1Cl [CBK086487],54.7274
9,Cc1cc(C)nc(Nc2n[nH]c(-c3ccccc3Cl)n2)n1 [CBK288167],91.972
10,O=C(NCc1cccs1)c1ccccc1-n1cccc1 [CBK149584],91.147
11,O=C(CN1C(=O)CSc2ccccc21)Nc1ccccc1C(=O)N1CCOCC1 [CBK267343],97.8264
12,O=C(NCc1ccccn1)c1ccc(CNS(=O)(=O)c2cccc(C(F)(F)F)c2)cc1 [CBK267291],110.505
13,CN1CCN(c2nccnc2OCC2COc3ccccc3O2)CC1 (stereo not drawn) [CBK003899C],19.4274
14,C[S+]([O-])CCNC(=O)Cn1c(-c2cccs2)cc2cccnc21 (stereo not drawn) [CBK282556],116.304
15,O=C(c1ccc2c(c1)ncn2CCO)N1CCC(c2ccccc2F)C1 (stereo not drawn) [CBK307075],104.957
16,CC(C)c1ccc(S(=O)(=O)NCCC#N)cc1 [CBK044722],90.2108
17,Cc1ccc2[nH]c(=O)c(CNc3ccc4[nH]ncc4c3)cc2c1 [CBK281936],83.8154
18,Cc1ccc(C)c(C2CCCN2C(=O)c2ccc(=O)n(CC(=O)N(C)c3ccccc3)c2)c1 (stereo not drawn) [CBK285654],97.9671
